{"source": "PubChem BioAssay (NCI)", "assay_in_all_cases": "NCI-60 cell line screen, 48 h", "key": {"IGROV1 ovarian": {"tested_on": "IGROV1 ovarian"}, "786-0 renal": {"tested_on": "786-0 renal"}, "NCI-H226 lung": {"tested_on": "NCI-H226 lung"}, "UO-31 renal": {"tested_on": "UO-31 renal"}, "ACHN renal": {"tested_on": "ACHN renal"}, "BT-549 breast": {"tested_on": "BT-549 breast"}, "MOLT-4 leukemia": {"tested_on": "MOLT-4 leukemia"}, "RXF 393 renal": {"tested_on": "RXF 393 renal"}, "SW-620 colon": {"tested_on": "SW-620 colon"}, "HL-60(TB) leukemia": {"tested_on": "HL-60(TB) leukemia"}, "CAKI-1 renal": {"tested_on": "CAKI-1 renal"}, "EKVX NSCLC": {"tested_on": "EKVX NSCLC"}, "NCI-H522 lung": {"tested_on": "NCI-H522 lung"}, "HCT-15 colon": {"tested_on": "HCT-15 colon"}, "TK-10 renal": {"tested_on": "TK-10 renal"}, "SK-MEL-2 melanoma": {"tested_on": "SK-MEL-2 melanoma"}, "LOX IMVI melanoma": {"tested_on": "LOX IMVI melanoma"}, "MDA-MB-435": {"tested_on": "MDA-MB-435"}, "MALME-3M melanoma": {"tested_on": "MALME-3M melanoma"}, "HT29 colon": {"tested_on": "HT29 colon"}, "SK-MEL-5 melanoma": {"tested_on": "SK-MEL-5 melanoma"}, "HOP-92 NSCLC": {"tested_on": "HOP-92 NSCLC"}}, "note": "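Method: 48-hour compound exposure of cells in 96-well plates, five concentrations, linear interpolation of endpoints. At the TGI there is no net growth.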 Some entries of the source have several records that differ or are many. This is not the full list of results. There may be further records. A record mostly stands for its own series of concentrations, which the source does not state; some values may only mark the edge of a range.", "data": [{"compound": "COc1ccc(C(=O)C#Cc2cnc(OC)nc2OC)cc1", "values": [{"measurement": "TGI", "setting": "IGROV1 ovarian", "result": "3.04 µM and 45.5 mM"}, {"measurement": "TGI", "setting": "786-0 renal", "result": "3.85 µM and 38.6 mM"}, {"measurement": "TGI", "setting": "NCI-H226 lung", "result": "3.07 µM and 35.8 mM"}, {"measurement": "TGI", "setting": "UO-31 renal", "result": "2.55 µM and 34.6 mM"}, {"measurement": "TGI", "setting": "ACHN renal", "result": "2.92 µM and 32.4 mM"}, {"measurement": "TGI", "setting": "BT-549 breast", "result": "3.37 µM and 81.6 mM"}, {"measurement": "TGI", "setting": "MOLT-4 leukemia", "result": "202 nM and 53.1 mM"}, {"measurement": "TGI", "setting": "RXF 393 renal", "result": "3.44 µM and 46.5 mM"}, {"measurement": "TGI", "setting": "SW-620 colon", "result": "2.13 µM and 77.7 mM"}, {"measurement": "TGI", "setting": "HL-60(TB) leukemia", "result": "7.19 µM and 66.6 mM"}, {"measurement": "TGI", "setting": "CAKI-1 renal", "result": "3.09 µM and 64.3 mM"}, {"measurement": "TGI", "setting": "EKVX NSCLC", "result": "3.51 µM and 57.7 mM"}, {"measurement": "TGI", "setting": "NCI-H522 lung", "result": "3.13 µM and 30 mM"}, {"measurement": "TGI", "setting": "HCT-15 colon", "result": "2.41 µM and 46.2 mM"}, {"measurement": "TGI", "setting": "TK-10 renal", "result": "3.6 µM and 33.6 mM"}, {"measurement": "TGI", "setting": "SK-MEL-2 melanoma", "result": "3.5 µM and 98.7 mM"}, {"measurement": "TGI", "setting": "LOX IMVI melanoma", "result": "356 nM and 34.5 mM"}, {"measurement": "TGI", "setting": "MDA-MB-435", "result": "10.2 µM and 78.5 mM"}, {"measurement": "TGI", "setting": "MALME-3M melanoma", "result": "3.44 µM and 34.4 mM"}, {"measurement": "TGI", "setting": "HT29 colon", "result": "2.62 µM and 38.6 mM"}, {"measurement": "TGI", "setting": "SK-MEL-5 melanoma", "result": "2.82 µM and 92.6 mM"}, {"measurement": "TGI", "setting": "HOP-92 NSCLC", "result": "3.45 µM and 42.1 mM"}]}]}
